# Results taken from the supplement of paper PMC8728848.
# Some of the results follow.
# B1: ZG-16 (Homo sapiens), O60844 (protein)
# chain: IQARSSSYSGEYGSGGGKRFSHSGNQLDGPITALRVRVNTYYIVGLQVRYGKVWSDYVGGRNGDLEEIFLHPGESVIQVSGKYKWYLKKLVFVTDKGRYLSFGKDSGTSFNAVPLHPNTVLRFISGRSGSLIDAIGLHWDVYPTSCSRCSRGSDDDDKAEPRGPTIKPCPPCKCPAPNLLGGPSVFIFPPKIKDVLMISLSPIVTCVVVDVSEDDPDVQISWFVNNVEVHTAQTQTHREDYNSTLRVVSALPIQHQDWMSGKEFKCKVNNKDLPAPIERTISKPKGSVRAPQVYVLPPPEEEMTKKQVTLTCMVTDFMPEDIYVEWTNNGKTELNYKNTEPVLDSDGSYFMYSKLRVEKKNWVERNSYSCSVVHEGLHNHHTTKSFSRTPGKRTYHHHHHHARKLTR
# Columns and labels:
# Test in all cases: glycan array binding signal (z-score within array); higher = stronger binding
# Settings in all cases: glycan notation: IUPAC condensed, linker removed
# Fuc(a1-2)Gal = biological target: Fuc(a1-2)Gal
# Procedure, shortened: (§1)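 The Consortium for Functional Glycomics database supplied 3228 glycan arrays, of which those lacking an available protein sequence were dropped. The binding signal, a within-array Z-score, was averaged across arrays of the same protein sequence and across linkers. Negative scores can be read as non-binding.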
# Fuc(a1-2)Gal(b1-3)GalNAc = biological target: Fuc(a1-2)Gal(b1-3)GalNAc
# Procedure, shortened: as §1
# [1] = biological target: Fuc(a1-2)Gal(b1-3)GalNAc(a1-3)[Fuc(a1-2)]Gal(b1-4)Glc
# Procedure, shortened: as §1
# [2] = biological target: Fuc(a1-2)Gal(b1-3)GalNAc(a1-3)[Fuc(a1-2)]Gal(b1-4)GlcNAc
# Procedure, shortened: as §1
# [3] = biological target: Fuc(a1-2)Gal(b1-3)GalNAc(b1-3)Gal
# Procedure, shortened: as §1
# [4] = biological target: Fuc(a1-2)Gal(b1-3)GalNAc(b1-3)Gal(a1-4)Gal(b1-4)Glc
# Procedure, shortened: as §1
# [5] = biological target: Fuc(a1-2)Gal(b1-3)GalNAc(b1-4)[Neu5Ac(a2-3)]Gal(b1-4)Glc
# Procedure, shortened: as §1
# Fuc(a1-2)Gal(b1-3)GlcNAc = biological target: Fuc(a1-2)Gal(b1-3)GlcNAc
# Procedure, shortened: as §1
# [6] = biological target: Fuc(a1-2)Gal(b1-3)GlcNAc(b1-2)Man(a1-3)[Fuc(a1-2)Gal(b1-3)GlcNAc(b1-2)Man(a1-6)]Man(b1-4)GlcNAc(b1-4)GlcNAc
# Procedure, shortened: as §1
# [7] = biological target: Fuc(a1-2)Gal(b1-3)GlcNAc(b1-3)Gal(b1-4)Glc
# Procedure, shortened: as §1
# [8] = biological target: Fuc(a1-2)Gal(b1-3)GlcNAc(b1-3)[Fuc(a1-3)[Gal(b1-4)]GlcNAc(b1-6)]Gal(b1-4)Glc
# Procedure, shortened: as §1
# [9] = biological target: Fuc(a1-2)Gal(b1-3)[Fuc(a1-4)]GlcNAc
# Procedure, shortened: as §1
# [10] = biological target: Fuc(a1-2)Gal(b1-3)[Fuc(a1-4)]GlcNAc(b1-2)Man(a1-3)[Fuc(a1-2)Gal(b1-3)[Fuc(a1-4)]GlcNAc(b1-2)Man(a1-6)]Man(b1-4)GlcNAc(b1-4)GlcNAc
# Procedure, shortened: as §1
# [11] = biological target: Fuc(a1-2)Gal(b1-3)[Fuc(a1-4)]GlcNAc(b1-3)[Fuc(a1-3)[Gal(b1-4)]GlcNAc(b1-6)]Gal(b1-4)Glc
# Procedure, shortened: as §1
# [12] = biological target: Fuc(a1-2)Gal(b1-3)[Fuc(a1-4)]GlcNAc(b1-3)[Gal(b1-4)GlcNAc(b1-6)]Gal(b1-4)Glc
# Procedure, shortened: as §1
# Fuc(a1-2)Gal(b1-4)Glc = biological target: Fuc(a1-2)Gal(b1-4)Glc
# Procedure, shortened: as §1
# Fuc(a1-2)Gal(b1-4)Glc6S = biological target: Fuc(a1-2)Gal(b1-4)Glc6S
# Procedure, shortened: as §1
# Fuc(a1-2)Gal(b1-4)GlcNAc = biological target: Fuc(a1-2)Gal(b1-4)GlcNAc
# Procedure, shortened: as §1
# [13] = biological target: Fuc(a1-2)Gal(b1-4)GlcNAc(b1-2)Man(a1-3)[Fuc(a1-2)Gal(b1-4)GlcNAc(b1-2)Man(a1-6)]Man(b1-4)GlcNAc(b1-4)GlcNAc
# Procedure, shortened: as §1
# [14] = biological target: Fuc(a1-2)Gal(b1-4)GlcNAc(b1-3)Gal(b1-4)GlcNAc
# Procedure, shortened: as §1
# [15] = biological target: Fuc(a1-2)Gal(b1-4)GlcNAc(b1-3)Gal(b1-4)GlcNAc(b1-3)Gal(b1-4)GlcNAc
# Procedure, shortened: as §1
# [16] = biological target: Fuc(a1-2)Gal(b1-4)GlcNAc(b1-3)GalNAc
# Procedure, shortened: as §1
# [17] = biological target: Fuc(a1-2)Gal(b1-4)GlcNAc6S
# Procedure, shortened: as §1
# [18] = biological target: Fuc(a1-2)Gal(b1-4)[Fuc(a1-3)]GlcNAc
# Procedure, shortened: as §1
# [19] = biological target: Fuc(a1-2)Gal(b1-4)[Fuc(a1-3)]GlcNAc(b1-2)Man(a1-3)[Fuc(a1-2)Gal(b1-4)[Fuc(a1-3)]GlcNAc(b1-2)Man(a1-6)]Man(b1-4)GlcNAc(b1-4)GlcNAc
# Procedure, shortened: as §1
# [20] = biological target: Fuc(a1-2)Gal(b1-4)[Fuc(a1-3)]GlcNAc(b1-3)Gal(b1-4)[Fuc(a1-3)]GlcNAc
# Procedure, shortened: as §1
# [21] = biological target: Fuc(a1-2)Gal(b1-4)[Fuc(a1-3)]GlcNAc(b1-3)Gal(b1-4)[Fuc(a1-3)]GlcNAc(b1-3)Gal(b1-4)[Fuc(a1-3)]GlcNAc
# Procedure, shortened: as §1
# Fuc(a1-2)Gal6S(b1-4)Glc = biological target: Fuc(a1-2)Gal6S(b1-4)Glc
# Procedure, shortened: as §1
# [22] = biological target: Fuc(a1-2)Gal6S(b1-4)Glc6S
# Procedure, shortened: as §1
# [23] = biological target: Fuc(a1-2)Gal6S(b1-4)GlcNAc
# Procedure, shortened: as §1
binder,measurement,setting,value
B1,glycan array binding signal (z-score),Fuc(a1-2)Gal,-0.186
same,glycan array binding signal (z-score),Fuc(a1-2)Gal(b1-3)GalNAc,-0.224
same,glycan array binding signal (z-score),[1],-0.213
same,glycan array binding signal (z-score),[2],-0.019
same,glycan array binding signal (z-score),[3],0.063
same,glycan array binding signal (z-score),[4],-0.106
same,glycan array binding signal (z-score),[5],-0.187
same,glycan array binding signal (z-score),Fuc(a1-2)Gal(b1-3)GlcNAc,1.33
same,glycan array binding signal (z-score),[6],-0.142
same,glycan array binding signal (z-score),[7],-0.175
same,glycan array binding signal (z-score),[8],-0.227
same,glycan array binding signal (z-score),[9],-0.221
same,glycan array binding signal (z-score),[10],-0.157
same,glycan array binding signal (z-score),[11],-0.196
same,glycan array binding signal (z-score),[12],-0.183
same,glycan array binding signal (z-score),Fuc(a1-2)Gal(b1-4)Glc,-0.214
same,glycan array binding signal (z-score),Fuc(a1-2)Gal(b1-4)Glc6S,-0.208
same,glycan array binding signal (z-score),Fuc(a1-2)Gal(b1-4)GlcNAc,-0.172
same,glycan array binding signal (z-score),[13],-0.185
same,glycan array binding signal (z-score),[14],-0.166
same,glycan array binding signal (z-score),[15],-0.215
same,glycan array binding signal (z-score),[16],-0.124
same,glycan array binding signal (z-score),[17],-0.185
same,glycan array binding signal (z-score),[18],-0.209
same,glycan array binding signal (z-score),[19],-0.181
same,glycan array binding signal (z-score),[20],-0.197
same,glycan array binding signal (z-score),[21],-0.174
same,glycan array binding signal (z-score),Fuc(a1-2)Gal6S(b1-4)Glc,-0.218
same,glycan array binding signal (z-score),[22],-0.171
same,glycan array binding signal (z-score),[23],-0.224
